Assay: soluble on expression in E. coli; label from the status in PepcDB or PDB records

Row | Sequence | soluble on expression in E. coli
1 | GPAIAENLYFQSDYFTLFGLPARYQLDTQALSLRFQDLQRQYHPDKFASGSQAEQLAAVQQSATINQAWQTLRHPLMRAEYLLSLHGFDLASEQHTVRDTAFLMEQLELREELDEIEQAKDEARLESFIKRVKKMFDTRHQLMVEQLDNETWDAAADTVRKLRFLDKLRSSAEQLEEKLLDFGAAYSEKVIDHYENPRNVGSFDNNDENVGSGMVGAPACGDVMKLQIKVNDEGIIEDARFKTYGCGSAIASSSLVTEWVKGKSLDEAQAIKNTDIAEELELPPVKIHCSILAEDAIKAAIADYKSKREAK | soluble
2 | SNATAKNLHPLLGEKLNLARIENQHHFQSYLTAESPAYLSQHQVFNKVLFPATGYLEIAAAVGKNLLTTGEQVVVSDVTIVRGLVIPETDIKTVQTVISTLENNSYKLEIFSTSEGDNQQANQWTLHAEGKIFLDSTTNTKAKIDLEQYQRECSQVIDIQQHYQQFKSRGIDYGNSFQGIKQLWKGQGKALGKIALPEEIAGQATDYQLHPALLDAALQILGHAIGNTETDDKAYLPVGIDKLKQYRQTITQVWAIVEIPENTLKGSIKLVDNQGSLLAEIEGLRVTATTADALLK | soluble

Source: the DeepSol protein solubility set
